Data reported in PubChem BioAssay AID686979 (National Center for Advancing Translational Sciences (NCATS), 2013).
Screen size: about 420,000 compounds; about 50,000 (12%) were called active. The shares of active, inactive and inconclusive entries below differ from those in the screen. Calls follow the shape of the dose curve; as a rule, active = well fitted inhibition curve with a large enough effect; inconclusive = small, poorly fitted or top-dose-only effect; inactive = flat fitted curve, though single readings scatter. No potency is given beside an inconclusive call; the fits are too rough.
% is scaled to controls: 0 for no effect and ±100 for the full control effect; potency is read from the fitted curve at half-maximal effect; tags tell the direction and shape of the fitted curve.

Test: qHTS for Inhibitors of human tyrosyl-DNA phosphodiesterase 1 (TDP1): qHTS in cells in presence of CPT; also: nearly all actives have a fitted effect of over 55% in size
Conditions: chicken DT40 Tdp1-/-;hTDP1 cells + 20 nM CPT, ATP luminescence, 48 h; activity change, negative = growth inhibition: at 46.2 µM (top of the series)
Summary of the method: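 Chicken DT40 Tdp1-/- cells complemented with human TDP1, 400 cells/well, exposed to compounds plus 20 nM camptothecin for at least 48 h at 37 C; viability read as ATP content by CellTiter-Glo luminescence.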
With `O=C(O)c1ccccc1C(=O)Nc1ccc(Nc2ccccc2)cc1` the Potency was inconclusive [inhibitor, single point].
With `COc1cc2c(NC3CCN(C)CC3)nc(N3CCCN(C)CC3)nc2cc1OCCN(C)C` the Potency was active: 11.2 µM.
With `COc1ccc(N2CCN(C(=O)c3cn(C)c(=O)c4c3c3ccccc3n4C)CC2)cc1` the Potency was inconclusive [inhibitor, single point].
With `NC(=O)c1nsc(C(=O)N(c2ccc3c(c2)OCO3)C(C(=O)NCC2CCCO2)c2ccc(F)cc2)c1N` (stereo unspecified) the “activity change, negative = growth inhibition” value was inactive: -13.4%.
For `CCOC(=O)N1CCN(S(=O)(=O)c2ccc(C(=O)N(CCCN(C)C)c3nc4ccc(Cl)cc4s3)cc2)CC1`, the Potency was inconclusive [inhibitor, single point].
In the case of `CCN(CC)C(=O)[C@H]1C[C@H](CC(=O)NC/C=C(\C)CCC=C(C)C)C(=O)N2CCc3c([nH]c4cc(-c5ccco5)ccc34)[C@]12C`, the Potency is reported as inconclusive [inhibitor, single point].
For `CCN1CCN(C(=O)c2ccc(Cl)c(S(=O)(=O)N3CCCCCC3)c2)CC1`, the activity change, negative = growth inhibition was inconclusive: -33.6% [inhibitor].
With `COc1ccccc1CCN=C(N)NS(=O)(=O)c1ccccc1F` the “activity change, negative = growth inhibition” value was inactive: -0.738%.
In the case of `Cc1ccc(NC(=O)Cn2c(=O)oc3ccccc32)cc1`, the “activity change, negative = growth inhibition” value is reported as inactive: 22.3%.
For `Cc1ccccc1C(=O)N1CCC(C(=O)N2CCN(c3ncccn3)CC2)CC1`, the “activity change, negative = growth inhibition” value was inactive: 1.7%.
With `CC(=O)NNc1cc(C)nc(NS(=O)(=O)c2ccc(C)cc2)n1` the “activity change, negative = growth inhibition” value was inactive: 35.8%.
For `CCN(CC)C(=O)CSc1nc2ccccc2c(=O)n1CCC(=O)NCc1ccc(F)cc1`, the “activity change, negative = growth inhibition” value was inactive: -1.92%.
In the case of `Cc1c(C(=O)O)sc2nc3n(c(=O)c12)CCC3`, the “activity change, negative = growth inhibition” value is reported as inactive: -28.3%.
In the case of `Cc1cc(N2C(=O)CC(N3CCN(C(c4ccccc4)c4ccccc4)CC3)C2=O)no1` (stereo unspecified), the “activity change, negative = growth inhibition” value is reported as inactive: -27.5%.
For `O=c1ccn([C@@H]2O[C@H](CNS(=O)(=O)c3cc4ccccc4s3)[C@@H](O)[C@H]2O)c(=O)[nH]1`, the “activity change, negative = growth inhibition” value was inactive: -10.7%.
With `O=C(NCc1ccccc1Cl)[C@@H]1CCCN1S(=O)(=O)c1ccc(Cl)cc1` the Potency was inconclusive [inhibitor, partial curve, poor fit].
For `CCCCOc1cccc(C(=O)N2CCN(CCc3ccncc3)CC2)c1`, the Potency was inconclusive [inhibitor, single point].
In the case of `COc1cc(NC(=O)C2CCCCC2)c(OC)cc1NC(=O)CN1CCCCC1`, the Potency is reported as inconclusive [inhibitor, single point].
For `Cc1ccccc1N1CCN(C(=S)c2ccc([N+](=O)[O-])cc2)CC1`, the Potency was inconclusive [inhibitor, single point].
In the case of `COc1ccc(S(=O)(=O)N2c3ccccc3OCC2c2ccccc2)cc1` (stereo unspecified), the Potency is reported as active: 18.4 µM.
In the case of `Cc1c(Cl)cccc1-c1ccc(/C=C(\C#N)c2nc3ccccc3[nH]2)o1`, the Potency is reported as active: 10.3 µM.
For `COCCNC(=O)c1ccc2c(c1)S(=O)(=O)c1cc(Cl)ccc1C2=O`, the “activity change, negative = growth inhibition” value was inactive: -27.6%.
In the case of `COC(=O)C(=Nc1ccccc1)/C(C(=O)C(=O)N(C)c1ccccc1)=C(\O)c1ccccc1`, the “activity change, negative = growth inhibition” value is reported as inactive: 24.5%.
In the case of `Oc1ccc(CCNc2c3ccccc3nc3ccccc23)cc1O`, the Potency is reported as active: 1.16 µM.
For `COc1ccc2c(c1)C(C)=CC(C)(C)N2C(=O)CNCc1ccc2c(c1)OCO2`, the Potency was active: 20.6 µM.
For `O=C(NCC(=O)N1CCCCCC1)c1ccc(Br)cc1`, the “activity change, negative = growth inhibition” value was inactive: 33.2%.
In the case of `CCNc1nc2c(c(=O)[nH]c(=O)n2C)n1CC(C)C`, the “activity change, negative = growth inhibition” value is reported as inactive: 5.08%.
For `CCN(CC)c1ccc(NS(=O)(=O)c2cc(-c3cc(C)no3)ccc2C)c(C)c1`, the Potency was inconclusive [inhibitor, single point].
With `CN1CCN(S(=O)(=O)c2ccc(N3CCN(C(=O)c4ccccc4)CC3)nc2)CC1` the “activity change, negative = growth inhibition” value was inactive: -4.8%.
For `Cc1ccc(OCC(O)CNCc2ccc(F)cc2)cc1` (stereo unspecified), the Potency was inconclusive [inhibitor, single point].
In the case of `CCOC(=O)N1CCN(CC(O)c2c[nH]c3ccc(OC)cc23)CC1` (stereo unspecified), the Potency is reported as inconclusive [inhibitor, single point].
With `COc1ccccc1N1CCN(c2nc(C)nc3c2oc2ccccc23)CC1` the Potency was active: 3.16 µM.
For `COc1ccc(C(=O)NCCn2ccc3ccccc32)cc1`, the Potency was inconclusive [inhibitor, single point].
For `Cc1cccc([C@@H](NC(=O)OC(C)(C)C)C(=O)OC(C)(C)C)c1`, the “activity change, negative = growth inhibition” value was inactive: -25.4%.
For `O=C(CCCOC(=O)c1cccnc1Cl)c1ccc(Br)cc1`, the Potency was inconclusive [inhibitor, single point].
For `CCCCc1nc2ccc(F)cc2cc1C`, the “activity change, negative = growth inhibition” value was inactive: -17.5%.
With `c1cnc2[nH]ccc2c1` the “activity change, negative = growth inhibition” value was inactive: -1.29%.
For `CS(=O)(=O)c1ccc(Cl)c(NC(=O)COC(=O)CCc2c[nH]c3ccccc23)c1`, the Potency was inconclusive [inhibitor, single point].
With `CCOCCCn1c(C)nc2c(c1=O)c1nc3ccccc3nc1n2-c1ccc(C)cc1` the Potency was inconclusive [inhibitor, partial curve, poor fit].
With `COc1ccc(-c2ccc(-c3cc(=O)oc4cc(OC)c(OC)c(OC)c34)cc2)cc1OC` the Potency was active: 18.4 µM.
With `O=C(CCNC(=O)c1ccc([N+](=O)[O-])cc1)Nc1ccccc1N1CCOCC1` the Potency was inconclusive [inhibitor, single point].
In the case of `CCc1ccc(NC(=O)Cn2cnc3sc(C)c(S(=O)(=O)N4CCOCC4)c3c2=O)cc1`, the Potency is reported as inconclusive [inhibitor, single point].
For `Cc1ccccc1N1CCN(C2CCCN(C(=O)CCC3(C)CC3)C2)CC1` (stereo unspecified), the Potency was inconclusive [inhibitor, single point].
For `NC(=O)C1CCN(C(=O)c2ccc3c(=O)n(Cc4ccco4)c(SCC(=O)c4ccccc4)nc3c2)CC1`, the Potency was inconclusive [inhibitor, single point].
For `O=C(NCc1ccc(OC(F)(F)F)cc1)c1cc(-c2ccccc2)nn1CC1CC(c2cccnc2)=NO1` (stereo unspecified), the Potency was inconclusive [inhibitor, single point].
In the case of `Cc1ccc(S(=O)(=O)N2C[C@H]3[C@H]4C(=O)N(c5ccccc5)C(=O)[C@H]4C[C@H](OC(=O)NCc4ccco4)[C@@]3(O)C2)cc1`, the “activity change, negative = growth inhibition” value is reported as inactive: -8.62%.
